# Measurements from PubChem BioAssay AID463173 (ICCB-Longwood Screening Facility, Harvard Medical School, 2010).
# The whole screen tested about 52,000 compounds, of which about 4,300 (8.3%) were called active. Rule as the data show it: active = survival mostly below about 52% (no sharp cut-off); inactive = mostly above about 56%. Some of the results follow.
# System: DeltatarO mutant
# Experiment: growth inhibition of S. aureus wild type versus tarO mutant, primary screen, teichoic acid synthesis inhibitors, RN4220, OD600 (AID 463173)
# Settings: OD600, 18 h, hits give low values, screened at 18.75 µg/mL (by protocol)
row,Compound,survival
1,COc1ccc(NC(=O)c2cc(C3CC3)nc3c2c(C)nn3-c2ccccc2)c(OC)c1,active: 37%
2,CCCN(CCC)CCNC(=O)c1cc2c(=O)oc3ccc(C)cc3c2s1,inactive: 116%
3,Cc1c(C(=O)Nc2cccc(C(F)(F)F)c2)sc2nc3n(c(=O)c12)CCC3,inactive: 65%
4,Cc1cccc(Cn2cc3c(=O)n(CC(=O)Nc4cccc(C)c4C)nc-3c3cc(F)ccc32)c1,inactive: 80%
5,Cc1cccc(N2CCN(C(=O)c3cc4ccc5cccnc5c4[nH]3)CC2)c1C,inactive: 78%
6,CCSc1nnc(COc2ccccc2)n1CC,inactive: 70%
7,CCOc1ccccc1NC(=O)CSc1cn(CC(=O)N2CCCCCC2)c2ccccc12,inactive: 92%
8,COc1cc(OC)c(NC(=O)C(CC(C)C)N2Cc3ccccc3C2=O)cc1Cl (stereo not given),inactive: 122%
9,Cc1ccc(NC(=O)CCN2C(=O)c3ccccc3Sc3ncccc32)cc1,inactive: 66%
10,CCOC(=O)Cn1nnnc1C(CC)N(Cc1cccnc1)Cc1cc2cc(C)ccc2[nH]c1=O (stereo not given),inactive: 78%
11,CC1=C(C(=O)Nc2ccccc2)C(c2ccc(F)cc2)n2nc(SCc3cc(C)ccc3C)nc2N1 (stereo not given),inactive: 97%
12,NC(=O)C1CCN(C(c2ccccc2)c2nnnn2Cc2ccccc2)CC1 (stereo not given),inactive: 95%
13,CCN(CC)S(=O)(=O)c1ccc2c(c1)N(CC(=O)Nc1cccc(C)c1C)C(=O)C1CCCN21 (stereo not given),active: -2%
14,O=C1C2C3C=CC(C3)C2C(=O)N1CCN1CCN(S(=O)(=O)c2ccc(Br)cc2)CC1 (stereo not given),inactive: 60%
15,CCOC(=O)N1CCN(Cc2nc3cc(NC(=O)CC(C)C)ccc3n2C(C)C)CC1,inactive: 71%
16,O=C(NCc1ccc2c(c1)CCN2C(=O)c1ccc(F)cc1)c1c(F)cccc1F,inactive: 85%
17,COc1cccc(-c2noc(-c3cc4ccccc4oc3=O)n2)c1OC,inactive: 102%
18,Cc1ccc(NC(=O)C2CCN(C(=O)c3sc4nc[nH]c(=O)c4c3C)CC2)cc1F,inactive: 89%
19,Cc1ccc(-c2nn(CCC(=O)Nc3ccc(OC(F)(F)F)cc3)c(=O)c3ccccc23)cc1,inactive: 82%
20,CCOc1cccc(C(=O)N(Cc2ccc(C(C)C)cc2)C2CCS(=O)(=O)C2)c1 (stereo not given),active: 40%
21,COc1ccccc1C(=O)Nc1ccccc1OCc1cc(=O)n2cc(C)sc2n1,inactive: 85%
22,Cc1ccc(/C=C(\C#N)C(=O)NC2CCCCCC2)o1,inactive: 92%
23,CCCSc1nnc(NC(=O)c2cc(=O)c3ccccc3o2)s1,active: 38%

row,Compound,survival
1,COCCNC(=O)Cn1cc(/C=C2\C(=O)NC(=O)N(C3CCCCC3)C2=O)c2ccccc21,inactive: 88%
2,CCOC(=O)N1CCc2c(sc3c2c(=O)n(CCc2ccccc2)c(=O)n3CC(=O)Nc2ccccc2C)C1,inactive: 88%
3,O=C(c1cccc(Cl)c1)N(Cc1cccc(F)c1)C1CCS(=O)(=O)C1 (stereo not given),inactive: 88%
4,NC(=O)c1c(NC(=O)CS(=O)(=O)c2ccc(Cl)cc2)sc2c1CCCC2,inactive: 118%
5,CCCN1CCN(CCCNC(=O)c2cc3c(s2)-c2c(C)cccc2OC3)CC1,inactive: 127%
6,COC(=O)c1cc2sccc2n1Cc1c(C)cc(C)cc1C,inactive: 66%
7,Cc1nn(C)c2c1c(C(F)(F)F)cc(=O)n2CC(=O)Nc1ccc(F)cc1F,inactive: 104%
8,Cc1nnc(N2CCC(C(=O)NC3CCC(C)CC3)CC2)c2nn(-c3ccc(Cl)cc3)c(C)c12 (stereo not given),inactive: 78%
9,Cc1ccccc1NC(=O)CSc1nccn1C,inactive: 73%
10,CCC(Sc1nc2ccccc2s1)C(=O)Nc1cc(C)on1 (stereo not given),inactive: 90%
11,Cc1cccc(N(C)C(=O)Cn2cnc3nc4c(cc3c2=O)CCCC4)c1,active: 17%
12,Cc1cc(NCCN(C)C)c2ccccc2n1,inactive: 89%
13,CCN1C(=O)C(Cc2nc3ccccc3c(=O)n2-c2cccc(C)c2)c2ccccc21 (stereo not given),inactive: 50%
14,Cc1ccc(-c2noc(-c3ccccc3OCC(=O)Nc3ccccc3[N+](=O)[O-])n2)cc1,inactive: 60%
15,CC(C)Oc1ccc(C(=O)NCCc2csc(-c3cccc(F)c3)n2)cc1,inactive: 90%
16,O=C(Nc1ncc(Cc2ccc(F)cc2)s1)c1ccc2c(c1)CC(c1ccccc1)OC2=O (stereo not given),inactive: 70%
17,CCCCCn1c(CCCNC(=O)c2ccccc2)nc2ccccc21,inactive: 59%
18,COc1cccc(NC(=O)Cn2c(=O)n(-c3ccc(C)cc3)c(=O)c3ccccc32)c1,inactive: 75%
19,CCCC(=O)N1c2nc(-c3ccco3)nn2C2(CCCCC2)[C@@H]2CCCC[C@@H]21,inactive: 53%
20,Cc1nc2ccccc2n1CCc1nc2c3ccccc3nc(SCc3ccccc3F)n2n1,inactive: 95%
21,CCc1ccc(CNC(=O)c2ccc(Cn3c(=O)c4cccn4c4cccnc43)cc2)cc1,inactive: 67%
22,CCCc1nnc(NC(=O)CSc2nnc3c4ccccc4n(CC)c3n2)s1,inactive: 69%
